The source gives no read counts; variants with many changes may rest on few reads.
B1: CPEB3 Ribozyme (parent)
chain: UAACAGGGGGCCACAGCAGAAGCGUUCACGUCGCAGCCCCUGUCAGAUUCUGGUGAAUCUGCGAAUUCUGCUGUAUAUCUC

Variants of: B1
Assay: self-cleavage, relative activity (ratio to wild type); higher = more cleavage; in vitro, sequencing
Outline: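 For each CPEB3 ribozyme variant, relative activity is its cleaved/total read fraction divided by the unmutated ribozyme's. Barcoded error-prone PCR libraries were transcribed by T7 RNA polymerase (5 hours, 37°C) and held in DNase I for 15 min before an EDTA stop, with cleavage occurring throughout. Template-switching reverse transcription and Illumina sequencing were used to read the RNAs. A 5-read minimum applied, and results are the mean of three batches.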
Work on C23U U25C C38A U43C U54G A64G yielded a self-cleavage of 0.09.
G22U U48G U49A G63A U69C showed a self-cleavage of 0.07.
With G22A U31C U49C the self-cleavage was 0.44.
Variant A21G U72C U78A U80C has a self-cleavage of 0.65.
For C23A U25C A75G, the self-cleavage was 0.3.
In the case of A21G G63U G70A, the self-cleavage is reported as 0.12.
With C23U U54C A56U A64G A65C U80C the self-cleavage was 0.11.
Work on A21G G46U U72A yielded a self-cleavage of 0.1.
With A21G U41A C59A the self-cleavage was 0.17.
C23A A35U U41C showed a self-cleavage of 0.08.
C23A A35U U41A showed a self-cleavage of 0.18.
C23U A35G A45U showed a self-cleavage of 0.28.
With C23A G52U U66C U67C the self-cleavage was 0.08.
G22U A45G U72A U80C showed a self-cleavage of 0.3.
C23A U51A U80C gave a self-cleavage of 0.19.
Variant A21G C29A A64U has a self-cleavage of 0.11.
A21G G22U A47G C50A U51C U78C showed a self-cleavage of 0.23.
For C23U A47G U58A U60C, the self-cleavage was 0.31.
Variant A21G U26C C32G A47G U48C U72A U80C has a self-cleavage of 0.03.
In the case of C23G U25C U31A G33A U72C, the self-cleavage is reported as 0.53.
With A21G G24A U58C the self-cleavage was 0.14.
Variant A21G U25A G42U U67C has a self-cleavage of 0.1.
A21G U31A C32U A47G U80C gave a self-cleavage of 0.11.
For G24A A35U A47G A65C, the self-cleavage was 0.11.
With A21U A45U U60C the self-cleavage was 0.18.
For G24A A56G U58A U66C U74A, the self-cleavage was 0.13.
With G22U U66C U69C U76C the self-cleavage was 0.04.
G22U U49C A56G showed a self-cleavage of 0.15.
Variant A21G U25C G46U has a self-cleavage of 0.05.
Work on A21G G33U C34U U51C G55C U66C yielded a self-cleavage of 0.1.
Variant A21G U41A U48A has a self-cleavage of 0.15.
C23U A64G U72G showed a self-cleavage of 0.1.
Work on G22C A35G C71G yielded a self-cleavage of 0.05.
With A21G U41C C44U U69C the self-cleavage was 0.07.
Variant A21G U25A U78A has a self-cleavage of 0.24.
With A21G U41C U43C U60A A75U U76A the self-cleavage was 0.25.
For C23U U25C A35G U41A U48C, the self-cleavage was 0.07.
A21G U43A G52C A56G gave a self-cleavage of 0.19.
C23A U25C U54A A64G U72A gave a self-cleavage of 0.17.
A21G U41A U60A showed a self-cleavage of 0.
Variant G24A A35U A57G has a self-cleavage of 0.06.
C23G U43A C62U gave a self-cleavage of 0.15.
Variant G22A U72C A77U has a self-cleavage of 0.16.
In the case of A21G U26C U54A A57G U80C, the self-cleavage is reported as 0.2.
In the case of A21G U31G A65G, the self-cleavage is reported as 0.25.
A21G U49C A77G showed a self-cleavage of 0.14.
G24A A47G U54C U80C gave a self-cleavage of 0.26.
In the case of A21U C44A U67A U72A, the self-cleavage is reported as 0.11.
For A21G U25C U51C A64G U69C, the self-cleavage was 0.19.
Variant A21G G63C A77G has a self-cleavage of 0.31.
Work on A21U U60C G63U yielded a self-cleavage of 0.2.
With C23A U54C A64U U76A the self-cleavage was 0.15.
Variant A21G U49C U54A U60A has a self-cleavage of 0.06.
Work on A21G G33A A35U A65U U78C yielded a self-cleavage of 0.05.
With A21G G55C A57G A65G A75G the self-cleavage was 0.08.
With A21U U26A A45G A47U U66C the self-cleavage was 0.09.
Work on C23G A45G A77G yielded a self-cleavage of 0.06.
For A21U C34U U60A U67C U69A, the self-cleavage was 0.11.
Work on C23A U31A U67C yielded a self-cleavage of 0.07.
A21G U41C C62A A65C showed a self-cleavage of 0.16.
With A21G U58C G63U the self-cleavage was 0.12.
Work on A21G U43A A45G G53A A64G yielded a self-cleavage of 0.42.
Variant A21G G24A U43A U80C has a self-cleavage of 0.11.
For A21G G63U U67C, the self-cleavage was 0.19.
With A21U U54C A65G A75G the self-cleavage was 0.08.
A21G U31C G36U U49C A56G U66G showed a self-cleavage of 0.06.
A21G U49C U74A showed a self-cleavage of 0.32.
With A21G U26C C40U U41C A47G U48C G52U the self-cleavage was 0.09.
A21U U48C U60C showed a self-cleavage of 0.12.
In the case of A21U U41A U49C C50G A57G U60A, the self-cleavage is reported as 0.08.
Work on A21G C29U A77G yielded a self-cleavage of 0.41.
With A21G U31A U49G U58C A64G U67C U72C the self-cleavage was 0.03.
In the case of A21G C44A U66C, the self-cleavage is reported as 0.37.
Work on C23G U43A A64U U67C U72C yielded a self-cleavage of 0.14.
A21G C40U U72C gave a self-cleavage of 0.66.
In the case of G22A U26C U41A, the self-cleavage is reported as 0.11.
A21U U31G C50U U76C gave a self-cleavage of 0.22.
A21G U26A U31C U66C gave a self-cleavage of 0.49.
Variant A21G U41C U58A G73A U80C has a self-cleavage of 0.38.
Work on A21G G22U C62A U69C yielded a self-cleavage of 0.04.
With A21G U43C A75U the self-cleavage was 0.15.
Work on C23A A28G C37G A56G yielded a self-cleavage of 0.23.
Variant A21U C29U U76C has a self-cleavage of 0.08.
Work on A21U C37A U41C G53A A64G yielded a self-cleavage of 0.15.

From the RNAGym collection of RNA variant scans (doi:10.1093/nar/gkz1192)
